Reference: PubChem BioAssay AID1508623 (National Center for Advancing Translational Sciences (NCATS), 2021)
Out of some 48,000 compounds screened, about 450 (0.94%) were called active. Roughly 19% stayed inconclusive and do not appear here. Calls come from the whole dose curve; as a rule, active = well fitted inhibition curve with a large enough effect; inconclusive = small, poorly fitted or top-dose-only effect; inactive = no such curve, though single readings can be large or run the other way. Some of the results follow.

experiment: Primary qHTS for Identification of Small Molecule Inhibitors of Huntingtin Promoter Activity; conditions: HEK293 HTT promoter firefly luciferase reporter (activity 0% = vehicle and -100% = no light), 24 h; series mostly up to 57.5 µM; activity change, negative = inhibition: at the top concentration; note: nearly all actives have a fitted effect of over 50% in size
Method in brief: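 Luminescence was read after Dual-Glo reagent and a 10 min room-temperature incubation. Values were normalized to vehicle (0% activity) and zero RLU (-100% activity). Reporter HEK293 cells had been exposed to compounds (up to 57.5 uM final) for 24 h.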

Activity change, negative = inhibition, inactive:
CCn1cc2nc(SCc3ccc(F)cc3)n(Cc3ccc(Cl)cc3)c(=O)c2n1 -2.43%
CCCS(=O)(=O)N1CC(=O)N(c2ccc(Cl)cc2)C(C)(C(=O)NC2CCCC2)C1 (centres undefined) 6.13%
CC(=O)Nc1ccc(Nc2nnc(-c3ccc(C)c(S(N)(=O)=O)c3)c3ccccc23)cc1 -11.8%
COCCn1c(SCC(=O)Nc2ccc(C(F)(F)F)cc2)nc2c([nH]c3ccccc32)c1=O -13.4%
O=C(Nc1ccc(S(=O)(=O)N(Cc2ccccc2)c2ccccc2)cc1)c1ccc([N+](=O)[O-])cc1 -22.2%
O=C(NCc1ccc2c(c1)CCN2C(=O)c1ccccc1)c1ccco1 -12.5%
Cc1ccc(NC(=O)C(=O)NCCc2csc3nc(-c4ccccc4C)nn23)cc1Cl -9.51%
O=C(NCc1ccccc1Cl)c1ccc(NC(=O)N2CCSc3ncccc32)cc1 -19.3%
CCOC(=O)c1cc(S(=O)(=O)N2CCN(c3ccc(F)cc3)CC2)[nH]n1 -16.4%
CCCN(CCC)CCNC(=O)C1CCCN(S(=O)(=O)c2cccc3nsnc23)C1 (centres undefined) -1.33%
CCCCCOC(=O)c1ccc(OC(=O)c2sc3ncn(Cc4cccc(F)c4)c(=O)c3c2C)cc1 0.351%
Cc1nc(SCc2ccc(Cl)cc2)c(C#N)c(C)c1Cl 20.5%
CC(C)CC(=O)N[C@H](C(=O)N[C@H](C(=O)N[C@@H](CC(C)C)[C@@H](O)CC(=O)N[C@@H](C)C(=O)N[C@@H](CC(C)C)[C@@H](O)CC(=O)O)C(C)C)C(C)C 6.23%
COc1ccc(OC)c(NC(=O)N2CCC(CN3CCCCC3)CC2)c1 2.15%
CCOC(=O)c1cnc2ccc(OCC)cc2c1Nc1cc(Cl)c(OC)cc1OC -5.77%
Cc1ccc(C)c(OC(=O)CSc2nnc(-c3ccc4c(c3)OCO4)o2)c1 7.52%
CCOc1cc(C(=O)Nc2ccc(S(=O)(=O)Nc3cc(OC)nc(OC)n3)cc2)cc(OCC)c1OCC -17.7%
COC(=O)c1ccc(Cn2c(SCC(=O)N(C)c3ccccc3)nc3ccccc32)cc1 -4.57%
COCCNC(=O)CSc1nc(-c2ccccc2C)nc2c1c(=O)n(C)c(=O)n2C -1.9%
NS(=O)(=O)c1ccc2nc(NC(=O)COc3ccccc3)sc2c1 -6.31%
CN(Cc1ccco1)S(=O)(=O)c1nnc(NC(=O)c2cccc(Cl)c2)s1 -15.5%
CCCN(CCC)C(=O)c1cc2c(=O)n3cccc(C)c3nc2n1C 2.37%
Cc1ccc2cccc(NC(=O)c3ccc(-c4cccc(Cl)c4)o3)c2n1 -14.3%
CC(C)C(NS(=O)(=O)c1ccc2c(c1)oc(=O)n2C)C(=O)NCCc1ccc(Cl)cc1 (centres undefined) -4.72%
Cc1ccc(-c2nnc(Nc3ccc(S(N)(=O)=O)cc3)c3ccccc23)cc1S(=O)(=O)N1CCCCC1 -21.5%
CCOCCCNC(=O)C(c1ccc(Cl)cc1)N(Cc1cccs1)C(=O)c1ccc(NC(C)=O)cc1 (centres undefined) -17.4%
CCC(=O)N1CCc2cc(Br)cc(S(=O)(=O)CCC(=O)N(CC)Cc3ccccc3)c21 -16.1%
CC(C)(Oc1ccc(Cl)cc1)C(=O)Nc1nc2ccc(S(C)(=O)=O)cc2s1 -8.33% [at 11.5 µM]
CN(C)c1ccc(C(CNC(=O)c2c(F)cccc2Cl)N2CCOCC2)cc1 (centres undefined) 37.7%
COc1ccc(-n2c(=O)c3c4c(sc3n3c(SCCC(C)C)nnc23)COC(C(C)C)C4)cc1 (centres undefined) 3.6%
CC(=O)N1CCc2cc(CNS(=O)(=O)c3ccc(Cl)s3)ccc21 1.12%
COc1cc(OC)cc(C(=O)Nc2ccc3oc(-c4cccc5c(Br)cccc45)nc3c2)c1 -5.22%
CN1C(=O)C2(SCC(=O)N2c2ccc(F)cc2)c2ccccc21 (centres undefined) -16.9%
CCOc1ccc(OCC)c(NS(=O)(=O)c2cc(-c3onc(C)c3C)ccc2OC)c1 3.28%
CCN1CCN(CCCNC(=O)c2ccc3nc(Cc4ccccc4)oc3c2)CC1 -10.8%
Cc1cccc(N2CCN(c3nc4ccc(C)cc4n4cnnc34)CC2C)c1 (centres undefined) -19%
O=C(NCC(c1ccc2c(c1)OCO2)N1CCOCC1)c1c(F)cccc1F (centres undefined) 4.25%
CCOc1ccccc1N(CC)C(=O)c1noc2c1COc1ccc(C)cc1-2 -29.5%
CCn1cc(C(=O)NCCc2ccc(Cl)cc2)c(=O)c2cc(S(=O)(=O)N3CCC(C)CC3)ccc21 1.25%
O=C(NC1CCCCC1)c1ccc2c(c1)N(Cc1ccc(Cl)cc1)C(=O)c1ccccc1S2=O (centres undefined) -21.2%
O=C(c1ccc(F)cc1)n1nc(-c2ccccc2)nc1NCc1ccco1 15.9%
Cc1cccc(NC(=O)CCNS(=O)(=O)c2cccc3nsnc23)c1C -8.57%
COc1ccc(N(CC(=O)N2CCN(c3ccccc3F)CC2)S(=O)(=O)c2c(C)n[nH]c2C)cc1 -7.98%
CC1(C)CCC[C@@]2(C)[C@@H]1CC[C@@]1(C)OC(=O)C[C@H]21 -9.53%
CCn1c(C)c(C)c2cc(C(=O)NCc3cccc(C)c3)ccc21 -3.61%
O=C(c1ccccc1)N(Cc1ccco1)Cc1cccs1 -14.4%
Cc1cccc(C(=O)Nc2ccc(C(=O)OCc3cc(=O)n4nc(CC(C)C)sc4n3)cc2)c1 14.2%
COc1cccc(CNC(=O)CCc2c(C)c3cc4c(C)coc4c(C)c3oc2=O)c1 -3.92%
COc1ccc(OCC(=O)N2CCN(C(=O)c3cccc(OC)c3)CC2)cc1 -0.686%
CCc1ccccc1NC(=O)CCS(=O)(=O)c1cccc2nonc12 -2.81%
Cc1ccc(-n2ncc3c(N4CCN(C)CC4)ncnc32)cc1C -32.5%
COc1ccccc1NC(=O)c1sc2nc(C)c(C(=O)Nc3ccc(C)cc3C)c(-c3ccc(C)o3)c2c1N -12.7%
Cc1cccc(C(=O)NCC(=O)OCc2cc(=O)n3nc(C4CC4)sc3n2)c1 -11.3%
Cc1cc(C)cc(NC(=O)CCc2c(C)nc3c4cccnc4nn3c2C)c1 -15.9%
CCOC(=O)Cn1c(=O)n(C2CCCCC2)c2nc(-c3cccc(OC)c3)nc(C(N)=O)c21 -5.79%
CCc1nn2c(=O)c(S(=O)(=O)Nc3cccc(F)c3)c(C)nc2s1 -28.2%
CCC(Sc1nc2nccnc2c(=O)n1Cc1ccc(C)cc1)C(=O)NC1CCCCC1 (centres undefined) -17.4%
Cc1c2cnn(-c3ccccc3)c(=O)c2c(C)n1CC(=O)NCc1ccccc1 -17.7%
Cc1cccc(-n2c(SCC(=O)c3ccccc3)nnc2-c2ccc(Br)cc2)c1 -15.8%
